Where a chain is given by its changes, count along the chain named. Names may count otherwise. Results are given in words; binding and its absence hold for the method and conditions named. For some of these results: Binding seen in cells or lysates may run through a third protein. Some results given as binding are weak or reduced against the parent protein; the word gives no strength. For some of these results: Where a sequence is shown, tags or fusion partners need not be part of it.
B1: pGADT7-14-3-3λ (protein, UniProt P48349 1-248)
chain: MAATLGRDQYVYMAKLAEQAERYEEMVQFMEQLVTGATPAEELTVEERNLLSVAYKNVIGSLRAAWRIVSSIEQKEESRKNDEHVSLVKDYRSKVESELSSVCSGILKLLDSHLIPSAGASESKVFYLKMKGDYHRYMAEFKSGDERKTAAEDTMLAYKAAQDIAAADMAPTHPIRLGLALNFSVFYYEILNSSDKACNMAKQAFEEAIAELDTLGEESYKDSTLIMQLLRDNLTLWTSDMQEQMDEA
B2: cLuc-14-3-3λ (protein, UniProt P48349 1-248)
chain: B1 chain
B3: 14-3-3λ^G216A (yeast two-hybrid) (protein, UniProt P48349 1-248)
chain: B1 chain with G216A
B4: 14-3-3λ^G216A (luciferase complementation) (protein, UniProt P48349 1-248)
chain: B1 chain with G216A
B5: pGADT7-SOS2 (protein, UniProt Q9LDI3 1-446)
chain: MTKKMRRVGKYEVGRTIGEGTFAKVKFARNTDTGDNVAIKIMAKSTILKNRMVDQIKREISIMKIVRHPNIVRLYEVLASPSKIYIVLEFVTGGELFDRIVHKGRLEESESRKYFQQLVDAVAHCHCKGVYHRDLKPENLLLDTNGNLKVSDFGLSALPQEGVELLRTTCGTPNYVAPEVLSGQGYDGSAADIWSCGVILFVILAGYLPFSETDLPGLYRKINAAEFSCPPWFSAEVKFLIHRILDPNPKTRIQIQGIKKDPWFRLNYVPIRAREEEEVNLDDIRAVFDGIEGSYVAENVERNDEGPLMMNAFEMITLSQGLNLSALFDRRQDFVKRQTRFVSRREPSEIIANIEAVANSMGFKSHTRNFKTRLEGLSSIKAGQLAVVIEIYEVAPSLFMVDVRKAAGETLEYHKFYKKLCSKLENIIWRATEGIPKSEILRTITF
B6: YFP^N-PKS5 (protein, UniProt O22932 1-435)
chain: MPEIEIAAGSGDNNDALFGKYELGKLLGCGAFAKVFHARDRRTGQSVAVKILNKKKLLTNPALANNIKREISIMRRLSHPNIVKLHEVMATKSKIFFAMEFVKGGELFNKISKHGRLSEDLSRRYFQQLISAVGYCHARGVYHRDLKPENLLIDENGNLKVSDFGLSALTDQIRPDGLLHTLCGTPAYVAPEILSKKGYEGAKVDVWSCGIVLFVLVAGYLPFNDPNVMNMYKKIYKGEYRFPRWMSPDLKRFVSRLLDINPETRITIDEILKDPWFVRGGFKQIKFHDDEIEDQKVESSLEAVKSLNAFDLISYSSGLDLSGLFAGCSNSSGESERFLSEKSPEMLAEEVEGFAREENLRMKKKKEEEYGFEMEGQNGKFGIGICISRLNDLLVVVEARRRGGDGDCYKEMWNGKLRVQLIRVCDQTSSTNAAI

Experiments:
[1] = target: T1, pGBKT7-PKS5 (Arabidopsis) (UniProt O22932); assay: two-hybrid; pGBKT7 and pGADT7 fusions co-transformed into yeast AH109; SC/-Trp/-Leu or SC/-Trp/-Leu/-His medium
T1 sequence: B6 chain

[2] = target: T2, pGBKT7-PKS5C, C-terminal regulatory domain (amino acids 307–435) (Arabidopsis) (UniProt O22932); assay: as above
T2 sequence: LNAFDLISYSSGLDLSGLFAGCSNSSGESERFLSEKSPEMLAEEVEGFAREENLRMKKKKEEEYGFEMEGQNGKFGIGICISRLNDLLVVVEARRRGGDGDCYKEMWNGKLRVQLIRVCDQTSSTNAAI

[3] = target: T3, pGBKT7-PKS5N, kinase domain (amino acids 1–280) (Arabidopsis) (UniProt O22932); assay: as above
T3 sequence: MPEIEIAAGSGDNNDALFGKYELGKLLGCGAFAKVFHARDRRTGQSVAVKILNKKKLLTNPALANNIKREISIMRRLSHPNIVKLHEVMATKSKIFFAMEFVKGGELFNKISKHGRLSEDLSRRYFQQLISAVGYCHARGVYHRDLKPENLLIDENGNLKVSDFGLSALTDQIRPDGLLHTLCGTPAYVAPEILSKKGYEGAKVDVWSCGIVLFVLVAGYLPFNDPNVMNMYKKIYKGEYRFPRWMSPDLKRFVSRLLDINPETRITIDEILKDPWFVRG

[4] = target: T4, SOS2 (yeast two-hybrid with 14-3-3λ, vector not stated) (Arabidopsis) (UniProt Q9LDI3); assay: as above
T4 sequence: B5 chain

[5] = target: T5, pGBKT7-PKS5JD, junction domain (amino acids 281–306) (Arabidopsis) (UniProt O22932); assay: as above
T5 sequence: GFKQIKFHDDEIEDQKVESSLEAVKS

nLuc-SOS2 (Arabidopsis) = target: T6, nLuc-SOS2 (Arabidopsis) (UniProt Q9LDI3); assay: split reporter; split-luciferase complementation (LUC) imaging, nLuc and cLuc fusions in N. benthamiana leaves, 1 mM luciferin; with or without co-expressed PKS5, PKS5-3, PKS5-4, PKS5^K50N or SCaBP1; with or without 200 mM NaCl for 5-30 min
T6 sequence: B5 chain

[6] = target: T7, PKS5 in pCAMBIA-nLuc (Arabidopsis) (UniProt O22932); assay: as above
T7 sequence: B6 chain

YFP^C-SOS2 (Arabidopsis) = target: T8, YFP^C-SOS2 (Arabidopsis) (UniProt Q9LDI3); assay: split reporter; BiFC, YFP^N and YFP^C fusions in N. benthamiana leaves, confocal microscopy
T8 sequence: B5 chain

| Binder | binding [1] | binding [4] | binding (nLuc-SOS2 (Arabidopsis)) | binding [6] | further results |
| --- | --- | --- | --- | --- | --- |
| B1 | binds | binds |  |  | binding [2]: no binding; binding [3]: binds; binding [5]: no binding |
| B2 |  |  | binds | binds |  |
| B3 | binds | binds |  |  |  |
| B4 |  |  | binds | binds |  |
| B5 | binds |  |  |  |  |
| B6 |  |  |  |  | binding (YFP^C-SOS2 (Arabidopsis)): binds |

— PMC6416337
